# From paper PMC4336329 (PLoS ONE, 2015)
# The campaign covered roughly 310,000 compounds. About 14,000 (4.5%) showed an effect of 50% or more. The effect is printed as a negative number. Some of the results follow.
# Target: human ether-à-go-go-related gene (hERG) potassium channel (human, UniProt Q12809)
# Test: primary screen, population patch clamp on CHO cells stably expressing hERG
# 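Note: peak tail current of the secondary pulse compared with the same well before compound.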
# Sequence of human ether-à-go-go-related gene (hERG) potassium channel (Q12809 whole entry, looked up): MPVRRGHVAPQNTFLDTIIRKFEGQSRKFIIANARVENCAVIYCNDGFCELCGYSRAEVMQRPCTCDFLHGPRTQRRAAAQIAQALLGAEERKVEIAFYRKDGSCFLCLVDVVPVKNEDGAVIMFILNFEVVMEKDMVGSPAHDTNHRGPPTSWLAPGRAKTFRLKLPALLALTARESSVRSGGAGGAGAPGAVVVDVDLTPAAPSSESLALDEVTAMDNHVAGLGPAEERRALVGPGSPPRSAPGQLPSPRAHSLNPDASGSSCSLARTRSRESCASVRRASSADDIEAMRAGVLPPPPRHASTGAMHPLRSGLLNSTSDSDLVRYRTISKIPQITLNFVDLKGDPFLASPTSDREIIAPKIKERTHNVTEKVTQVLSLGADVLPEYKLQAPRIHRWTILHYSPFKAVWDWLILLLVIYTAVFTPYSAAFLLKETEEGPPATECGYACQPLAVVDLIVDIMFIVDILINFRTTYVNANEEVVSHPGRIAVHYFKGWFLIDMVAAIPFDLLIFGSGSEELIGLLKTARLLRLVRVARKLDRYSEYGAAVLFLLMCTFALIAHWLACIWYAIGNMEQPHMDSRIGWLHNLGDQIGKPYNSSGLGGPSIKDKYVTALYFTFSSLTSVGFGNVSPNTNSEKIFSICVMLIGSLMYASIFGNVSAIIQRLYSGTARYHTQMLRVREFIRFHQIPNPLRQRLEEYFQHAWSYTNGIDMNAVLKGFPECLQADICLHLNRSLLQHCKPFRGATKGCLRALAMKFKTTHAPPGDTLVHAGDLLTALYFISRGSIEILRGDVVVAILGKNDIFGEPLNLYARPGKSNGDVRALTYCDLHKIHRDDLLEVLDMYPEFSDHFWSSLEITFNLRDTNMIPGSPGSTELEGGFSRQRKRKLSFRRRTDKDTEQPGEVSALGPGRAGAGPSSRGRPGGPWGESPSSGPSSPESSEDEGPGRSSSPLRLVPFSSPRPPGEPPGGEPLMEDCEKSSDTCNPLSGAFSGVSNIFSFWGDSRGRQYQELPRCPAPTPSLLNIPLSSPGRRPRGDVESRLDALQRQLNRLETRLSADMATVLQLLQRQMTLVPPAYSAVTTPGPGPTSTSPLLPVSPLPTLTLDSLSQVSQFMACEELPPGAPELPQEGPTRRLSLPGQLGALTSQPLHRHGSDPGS
row,SMILES,"hERG current change (%, negative = inhibition) at 10uM"
1,O=C1c2cccc3cccc(c23)C(=O)N1CCCn1ccnc1,-22%
2,O=c1c2ccccc2nc(-c2ccc(Cl)c(Cl)c2)n1O,13.9%
3,OC1CCCCC1N1CCC(c2ccccc2)CC1 (stereo not shown),-11.2%
4,CC(C)(C)NC(=O)C1CCN(c2ccc(S(=O)(=O)N3CCOCC3)cc2Cl)CC1,15.3%
5,O=C(Nc1ccccc1Sc1ccccc1)C1CCCO1 (stereo not shown),-2.9%
6,COc1ccc(-c2csc(C3=C(O)CN(Cc4ccc(Cl)cc4)C3=N)n2)cc1OC,-2.48%
7,CCc1nn(C(CC)C(=O)NCc2cccc(OC)c2OC)c(=O)c2cc3occc3n12 (stereo not shown),-8.06%
8,Cl.Clc1cccc(N2CCNCC2)c1,11.1%
9,CN(C)S(=O)(=O)c1cccc(CSCc2cccc(S(=O)(=O)N(C)C)c2)c1,22%
10,O=C(Cc1ccccc1)OCc1ccccc1,21%
11,Cc1ccc(-c2noc(=O)n2CC(=O)c2ccc(Cl)cc2)cc1,10.7%
12,COc1ccc(Cl)cc1NC(=O)CN(C)CC(=O)Nc1ccccc1N1CCOCC1.O=C(O)C(=O)O,-16.9%
13,COc1cccc(-c2cc(C(=O)N3CCN(Cc4ccc5c(c4)OCO5)CC3)on2)c1,-9.02%
14,NC(=O)c1nnn(-c2ccccc2)c1N,21.1%
15,CC(C)(C)C(=O)N/C(N)=N/c1nc2ccccc2o1,2.02%
16,CSc1ccc(NC(=O)NCCCN2CCN(c3ccccc3F)CC2)cc1,-55.1%
17,CCOC(=O)C1C(=O)CC(C)(O)C(C(=O)OCC)C1c1ccc(OCC)cc1 (stereo not shown),-1.39%
18,CCOC(=O)C1(Cc2ccccc2)CCN(Cc2ccc3cc(NC(C)=O)ccc3n2)CC1,-68.7%
19,C[C@H](N=C1NS(=O)(=O)c2ccccc21)C(=O)OCc1cc([N+](=O)[O-])cc2c1OCOC2,-15.6%
20,CC(=O)n1cc(/C=N/NC(=O)c2ccc([N+](=O)[O-])cc2)c2ccccc21,6.88%
21,O=C(CSC1=NS(=O)(=O)c2cc(Cl)ccc2N1)c1ccc(Cl)cc1,9.08%
22,COC(=O)c1ccc(C23CC4(C2)[C@H](CN(Cc2ccc(C(F)(F)F)cc2)[C@@H]4c2ccccc2)C3c2ccc(Cl)nc2)cc1 (stereo partly shown),14.8%
23,O=C(COc1cccnc1[N+](=O)[O-])NCCc1ccc(Cl)cc1,-0.0291%
24,COc1ccc(C(=O)OC(C)C(=O)NC2CCCC2)cc1S(=O)(=O)N1CCOCC1 (stereo not shown),-3.86%
25,CC12CCC(C(=O)OC3CCCCC3)(OC1=O)C2(C)C (stereo not shown),18.8%
26,Cc1ccc(C)c(S(=O)(=O)N2CCN(C(=O)c3ccc(-n4cncn4)c([N+](=O)[O-])c3)CC2)c1,-72.1%
27,CCOC(=O)c1cc(OCC(=O)NC(C)C(C)C)cc(C(=O)OCC)c1 (stereo not shown),-7.79%
28,Cc1ccc(S(N)(=O)=O)cc1NC(=O)C1CC2CCC1C2 (stereo not shown),10.1%

row,SMILES,"hERG current change (%, negative = inhibition) at 10uM"
1,Cc1cc(=O)[nH]c(N/N=C/c2ccc(-c3ccc(F)cc3)o2)n1,-12.1%
2,CC1Cc2nc(SCC(=O)c3ccccc3)n(Cc3ccccc3)c(=O)c2S1 (stereo not shown),2.21%
3,CC(=O)Nc1ccc(NS(=O)(=O)c2ccc(-c3csc(C)n3)s2)cc1,4.28%
4,O=C1NC(N2CCOCC2)=N/C1=C/c1ccc2c(c1)OCO2,2.71%
5,Cc1c(Cc2ccccc2)sc(/N=C/c2c(O)ccc3ccccc23)c1C(N)=O,-6.04%
6,CC(C)CC(=O)N1CCN(C(=O)c2ccc(F)cc2)CC1,12.6%
7,CCOc1ccccc1NC(=S)N1CCC(c2nc3ccccc3o2)CC1,4.78%
8,NS(=O)(=O)c1ccc(CCNC(=O)c2cccc3ccccc23)cc1,9.98%
9,NC(=O)c1nc[nH]c1C(=O)Nc1cccc(C(F)(F)F)c1,2.89%
10,Cc1ccc(-c2noc(CN(C(=O)CCCN3C(=O)c4ccccc4C3=O)C(C)C)n2)cc1,-39.7%
11,CC(=O)N1c2ccc(S(=O)(=O)NCC3CCC(C(=O)NCc4ccc(C)o4)CC3)cc2CC1C (stereo not shown),-3.13%
12,Cn1c(O)c(C=NCc2cccs2)c(=O)n(C)c1=O,1.04%
13,CCC(Oc1ccccc1C)C(=O)N1CCCN(C)CC1 (stereo not shown),10.4%
14,Cc1ccc(-c2nn(-c3cccc(F)c3)cc2CN2CCN(c3ccccn3)CC2)o1,-26.5%
15,Cc1ncsc1C(=O)Nc1nc2c(s1)CC(C)CC2 (stereo not shown),6.52%
16,O=C(c1cccc(Cl)c1)N1CCN(S(=O)(=O)c2ccc(Cl)s2)CC1,-37.4%
17,COc1ccc(C)cc1NC(=O)CSc1nnc(CC(=O)Nc2ccccc2F)n1C,3.63%
18,COc1ccc(C2CC(=O)C=C(NNS(=O)(=O)c3ccc(C)cc3)C2)cc1 (stereo not shown),-6.77%
19,CC1(C)CC(C2N3CC4(C)CN2CC(C)(C3)C4=O)CCO1 (stereo not shown),-1.88%
20,O=C(N/C(=C/c1cccc([N+](=O)[O-])c1)C(=O)N1CCCCCC1)c1ccco1,-28.2%
21,CCn1ccnc1CN1CCN(CC(C)C)C(CCO)C1 (stereo not shown),25.7%
22,CC1CCCCN1S(=O)(=O)c1ccc(-n2cnnn2)cc1 (stereo not shown),-50.1%
23,CC(C)(C)C(=O)CSc1ncnc2c1cnn2Cc1ccccc1,-5.74%
24,O=C(C1=NN[C@@H]2C(=O)N(c3cccc(C(F)(F)F)c3)C(=O)[C@H]12)c1cnccn1,19%
25,COCCNC(=S)N1CCN(C)CC1.O=C(O)C(=O)O,5.92%
26,CCOC(=O)CNC(=O)c1ccc(OCC(F)(F)F)cc1,9.36%
27,CN(C1CCCCC1)S(=O)(=O)c1cccc2nsnc12,8.05%
